Experimental data published in the supplement of paper PMC10126150.
Sequences with one replicate were seen in a single cluster, so their values are uncertain.

Test system: ATP
Assay: switch fluorescence ratio, 500 uM ATP over buffer (Cy3 cluster intensity, sum of 5 cycles each) (fold (ratio)); higher = stronger signal-on switching upon ATP binding; sequences stand for … in TCGTCGGCAGCGTCAGATGTGTATAAGAGACAGTTTTTTTTTTTTTTTTTTTTTTTTT…TC
Settings: aptamer strand: ATP DNA aptamer (quencher-CACCTGGGGGAGTATTGCGGAGGAAGG + anchor), 100 nM annealed; ATP concentration: 500 uM; one replicate
Method in brief: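 Switching-strand clusters labelled with Cy3 on a modified Illumina MiSeq flow-cell were annealed to 100 nM quencher-labelled ATP aptamer, imaged in selection buffer, and re-imaged after 15 min with 500 uM ATP at 22 °C. This was done over five cycles with NaOH stripping and re-annealing in between. The fluorescence ratio is summed target-cycle over summed buffer-cycle Cy3 intensity per cluster, averaged per switch-domain sequence, excluding clusters outside 100-1000 RFU.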
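Note: ATP exposure 15 min at 22 °C before imaging.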

Sequence	switch fluorescence ratio
CGGATGCCGG	1.02
CAGTTAGGCT	1.03
GTTCTGTGTA	0.975
TTAATACCAA	1.02
CCTGCATACA	2.3
CGTGAGAGGC	0.976
GGGGATGAAC	1.01
GTGTCCCCTC	1.06
GCCTTAGTGC	1.09
CAGAACCGTT	1.04
TGGAGTTACC	0.973
CGGACTATGT	0.999
AACGACGTAC	2.08
CGGTTGAAAC	0.987
ATAAAAGGTT	0.999
CATTTCCCGC	1.51
TTGGGGATCT	1.04
CGATGGGGAT	1.01
CTGTATGAGC	1.18
ATAAGAAATT	0.999
GTGGCCGCGA	1.16
GGGTATTCAT	0.991
TTTTTCATAG	1.02

Sequence	switch fluorescence ratio
GCTTGTACTT	1.02
CGGCACGGCC	0.986
TTAAGCTGAG	1.01
TGTTCACCAC	1.04
TACAGCGAGT	1.04
GGTGGTGGAT	0.987
CTGTCAGAG	1.06
ATGTAATTAC	1.03
CGAGTTGGTT	1
GGCTGATACT	1.11
TACGTAATAA	1.41
ATGTTCACGT	0.97
TTAGATTAC	1.03
CCAATCGGGT	1.03
TTCAACTAGT	0.987
GGTGTTGGAA	1.05
GATCTCCGTA	1.03
TTCGGATTTG	0.999
TAATCGGAGC	0.957
CGGTGTTCTA	0.995
TTGAAAAGTT	1.05
ACTATGTGCA	0.962
GATAACTGT	1.02

Sequence	switch fluorescence ratio
CGGCCGAGCT	1.02
GCATGCTCTA	0.975
CGTCTACTCT	0.978
AGGAGTAGGC	0.697
GCTGAGTACG	1.05
GCGATCAGCC	1.03
CGGATAGTTT	0.963
ACAAGAGCGG	1.02
GGCCACGCAG	1.07
GAAAACCAGC	1.06
TCAATCCTGT	0.993
AGCACCGC	1.03
CGCGGGCTAG	0.967
CGGGGACGTT	1.01
TTGGGAGTG	0.918
GATGAAAATG	1.01
TAAAGACCG	0.984
CTCTGACTGC	1.48
CGTTACGGAG	0.977
GCATCGCTTG	1.06
TTTCGTTTC	1.02
CTGGTAGTCA	1.01
CGAGAATGCA	0.995

Sequence	switch fluorescence ratio
TTGAGCTTAA	1.01
TACAGCCGCA	1.51
GGGAGGCGTC	1.33
CAGCTGAGGA	0.978
TGTGGACGGT	0.969
CGATTTGTTG	0.998
ATAATAACAT	1.02
CGGAGTTGTC	1.01
TCGATTAATC	1.02
TATAAGGTAT	0.952
TATAACCTTA	1.16
CGGAGTGGAG	1.01
TAAAGGTAAG	0.952
AAATATGGA	0.994
ACCGGAGCCG	1.23
CCTGCATCGA	1.19
TCTCAGTTTT	1
TTCCTGATAG	1.03
TAGGATGAGA	0.975
AAGCGGGGCG	1.03
GGTGTATGAT	0.988
TTGGACCAGG	0.952
TTTCTGTAGG	1.01

Sequence	switch fluorescence ratio
ACCGGCACTT	1.16
ATCGAAAGAG	1.02
AGTAAAATCG	0.974
ATCTGGATGA	0.984
CGTCTTTTTT	0.977
GGCTGCCCCA	1.04
GAGGCTTTGA	1.01
GTGTGAAC	0.994
AGGAAAGCAA	1.47
CTCTATATTC	1.07
CTAGTCCGCT	1.25
CGTATGGTCA	1.05
AGCTGCGGTT	0.978
GTCAATGACC	0.991
AGCTTAGGCT	1.06
ATGTATATTC	1.01
TTAAGAAGTT	1.04
TATACGGCCT	1.04
AATTTGCACC	1.02
TTACGGGCCA	1.05
GTGTCCTGTT	0.976
GACGAATGGC	1.1
TTTTCATTG	0.971

Sequence	switch fluorescence ratio
CTATGCTGCA	1.03
GATCTTGTT	1
AGCGAGCGCA	1.04
ATCTTACAAG	1.29
GCGGGATATC	0.982
AAGGTCACTG	0.999
AATCCCTATA	1.02
AAAGTCCCGG	0.992
GATTCTTTCG	0.938
TAATATTCCT	1.04
GGGAACGTCT	0.941
AAATTGCGAT	1.02
GCAAAGAATG	1.03
GGACGCGGTG	1.05
TCTGGAAGA	0.936
ACCGGGAGAG	1.02
CCTAGAAGGT	0.979
TTACCACGGC	1.1
GTACACGGAG	0.991
CGACTTATTA	1
TCTGGATTCT	1.01
ACGGGTCCTG	1.02
TGGCGAGGTA	1.01

Sequence	switch fluorescence ratio
AAGTTCGGTT	0.985
GAGCAACAGT	1.04
TTTACTATGT	1.03
TATCCGATGG	1.02
AAAATCATTT	1
TAAACAAGTT	1.08
CAGTAATATG	1.05
GGCCAGATCA	1.01
AGTAATTTGA	1.05
AGGATAGCG	0.966
GAGCAGGGAA	1.02
TATTGCCGTT	0.946
GAGATCTACT	0.987
TTCGGCGTCC	0.983
CAACGAATG	0.993
AGCACCACGG	1.05
AGAGTGTTCA	1.01
CGCTAGATAT	1.05
TGTCCTACGG	1.05
